# Measured values: the supplement of paper PMC8728848
# The other results are listed elsewhere or left out.
# B1: Surfactant Protein D (Human); Neck + Carbohydrate Recognition Domain (NCRD) (Homo sapiens) (protein)
# chain: MLLFLLSALVLLTQPLGYLEAEMKTYSHRTMPSACTLVMCSSVESGLPGRDRDGREGPRGEKGDPGLPGAAGQAGMPGQAGPVGPKGDNGSVGEPGPKGDTGPSGPPGPPGVPGPAGREGALGKQGNIGPQGKPGPKGEAGPKGEVGAPGMQGSAGARGLAGPKGERGVPGERGVPGNTGAAGSAGAMGPQGSPGARGPPGLKGDKGIPGDKGAKGESGLPDVASLRQQVEALQGQVQHLQAAFSQYKKVELFPNGQSVGEKIFKTAQFVKPFTEAQLLCTQAGGQLASPRSAAENAALQQLVVAKNEAAFLSMTDSKTEGKFTYPTGESLVYSNWAPGEPNDDGGSEDCVEIYTNGKWNDRACGEKRLVVCEF
# Experiments:
# Assay in all cases: glycan array binding signal (z-score within array); higher = stronger binding
# Conditions in all cases: glycan notation: IUPAC condensed, linker removed; mutation: F335Y
# GalNAc(b1-3)GalNAc = target: GalNAc(b1-3)GalNAc
# In short: (§1)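 Arrays were curated from the Consortium for Functional Glycomics database, 3228 in total, and kept only where the protein sequence was available. Binding is expressed as a within-array Z-score. This score was averaged across arrays of the same protein sequence at different concentrations or buffers and across linkers, and negative values can be read as non-binding.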
# GalNAc(b1-4)GlcNAc = target: GalNAc(b1-4)GlcNAc
# In short: as §1
# Glc(a1-4)Glc = target: Glc(a1-4)Glc
# In short: as §1
# Glc(a1-6)Glc(a1-6)Glc = target: Glc(a1-6)Glc(a1-6)Glc
# In short: as §1
# Glc(b1-4)Glc = target: Glc(b1-4)Glc
# In short: as §1
# Glc(b1-6)Glc = target: Glc(b1-6)Glc
# In short: as §1
# GlcA(b1-3)Gal = target: GlcA(b1-3)Gal
# In short: as §1
# GlcA(b1-3)GlcNAc = target: GlcA(b1-3)GlcNAc
# In short: as §1
# GlcA(b1-6)Gal = target: GlcA(b1-6)Gal
# In short: as §1
# [1] = target: GlcNAc(a1-3)Gal(b1-4)GlcNAc
# In short: as §1
# [2] = target: GlcNAc(a1-6)Gal(b1-4)GlcNAc
# In short: as §1
# [3] = target: GlcNAc(b1-2)Gal(b1-3)GalNAc
# In short: as §1
# [4] = target: GlcNAc(b1-2)Man(a1-3)[GlcNAc(b1-2)Man(a1-6)]Man(b1-4)GlcNAc(b1-4)GlcNAc
# In short: as §1
# GlcNAc(b1-3)Gal = target: GlcNAc(b1-3)Gal
# In short: as §1
# [5] = target: GlcNAc(b1-3)Gal(b1-3)GalNAc
# In short: as §1
# GlcNAc(b1-3)Gal(b1-4)Glc = target: GlcNAc(b1-3)Gal(b1-4)Glc
# In short: as §1
# [6] = target: GlcNAc(b1-3)Gal(b1-4)GlcNAc
# In short: as §1
# [7] = target: GlcNAc(b1-3)Gal(b1-4)GlcNAc(b1-3)Gal(b1-4)GlcNAc
# In short: as §1
# GlcNAc(b1-3)GalNAc = target: GlcNAc(b1-3)GalNAc
# In short: as §1
# GlcNAc(b1-3)Man = target: GlcNAc(b1-3)Man
# In short: as §1
# [8] = target: GlcNAc(b1-3)[GlcNAc(b1-4)][GlcNAc(b1-6)]GlcNAc
# In short: as §1
# [9] = target: GlcNAc(b1-3)[GlcNAc(b1-6)]Gal(b1-4)GlcNAc
# In short: as §1
# [10] = target: GlcNAc(b1-3)[GlcNAc(b1-6)]GalNAc
# In short: as §1
# [11] = target: GlcNAc(b1-4)Gal(b1-4)GlcNAc
# In short: as §1
# GlcNAc(b1-4)GlcNAc = target: GlcNAc(b1-4)GlcNAc
# In short: as §1
# [12] = target: GlcNAc(b1-4)GlcNAc(b1-4)GlcNAc
# In short: as §1
# [13] = target: GlcNAc(b1-4)GlcNAc(b1-4)GlcNAc(b1-4)GlcNAc(b1-4)GlcNAc
# In short: as §1
# [14] = target: GlcNAc(b1-4)GlcNAc(b1-4)GlcNAc(b1-4)GlcNAc(b1-4)GlcNAc(b1-4)GlcNAc
# In short: as §1
# [15] = target: GlcNAc(b1-4)[GlcNAc(b1-6)]GalNAc
# In short: as §1
# [16] = target: GlcNAc(b1-6)Gal(b1-4)GlcNAc
# In short: as §1
# GlcNAc(b1-6)GalNAc = target: GlcNAc(b1-6)GalNAc
# In short: as §1
# GlcNAc3Prop(b1-4)GlcNAc = target: GlcNAc3Prop(b1-4)GlcNAc
# In short: as §1
# Kdn(a2-3)Gal(b1-3)GlcNAc = target: Kdn(a2-3)Gal(b1-3)GlcNAc
# In short: as §1
# Kdn(a2-3)Gal(b1-4)GlcNAc = target: Kdn(a2-3)Gal(b1-4)GlcNAc
# In short: as §1
# [17] = target: Man(a1-2)Man(a1-2)Man(a1-3)Man
# In short: as §1
# [18] = target: Man(a1-2)Man(a1-2)Man(a1-6)[Man(a1-3)]Man
# In short: as §1
# Man(a1-2)Man(a1-3)Man = target: Man(a1-2)Man(a1-3)Man
# In short: as §1
# [19] = target: Man(a1-2)Man(a1-3)[Man(a1-2)Man(a1-6)]Man
# In short: as §1
# [20] = target: Man(a1-2)Man(a1-3)[Man(a1-2)Man(a1-6)]Man(a1-6)[Man(a1-2)Man(a1-2)Man(a1-3)]Man
# In short: as §1
# [21] = target: Man(a1-2)Man(a1-3)[Man(a1-2)Man(a1-6)]Man(a1-6)[Man(a1-2)Man(a1-2)Man(a1-3)]Man(b1-4)GlcNAc(b1-4)GlcNAc
# In short: as §1
# [22] = target: Man(a1-2)Man(a1-3)[Man(a1-6)]Man(a1-6)[Man(a1-2)Man(a1-3)]Man(b1-4)GlcNAc(b1-4)GlcNAc
# In short: as §1
# [23] = target: Man(a1-2)Man(a1-6)[Man(a1-3)]Man(a1-6)[Man(a1-2)Man(a1-2)Man(a1-3)]Man
# In short: as §1
# [24] = target: Man(a1-2)Man(a1-6)[Man(a1-3)]Man(a1-6)[Man(a1-2)Man(a1-2)Man(a1-3)]Man(b1-4)GlcNAc(b1-4)GlcNAc
# In short: as §1
# Man(a1-3)[Man(a1-6)]Man = target: Man(a1-3)[Man(a1-6)]Man
# In short: as §1
# [25] = target: Man(a1-3)[Man(a1-6)]Man(a1-6)[Man(a1-2)Man(a1-3)]Man(b1-4)GlcNAc(b1-4)GlcNAc
# In short: as §1
# [26] = target: Man(a1-3)[Man(a1-6)]Man(a1-6)[Man(a1-3)]Man
# In short: as §1
# [27] = target: Man(a1-3)[Man(a1-6)]Man(a1-6)[Man(a1-3)]Man(b1-4)GlcNAc(b1-4)GlcNAc
# In short: as §1
# [28] = target: Man(a1-3)[Man(a1-6)]Man(b1-4)GlcNAc(b1-4)GlcNAc
# In short: as §1
# Man(a1-6)Man = target: Man(a1-6)Man
# In short: as §1
# Man(b1-4)GlcNAc = target: Man(b1-4)GlcNAc
# In short: as §1
# Neu5Ac(a2-3)Gal = target: Neu5Ac(a2-3)Gal
# In short: as §1
# [29] = target: Neu5Ac(a2-3)Gal(b1-3)GalNAc
# In short: as §1
# [30] = target: Neu5Ac(a2-3)Gal(b1-3)GalNAc(b1-3)Gal(a1-4)Gal(b1-4)Glc
# In short: as §1
# [31] = target: Neu5Ac(a2-3)Gal(b1-3)GalNAc(b1-3)Gal(b1-4)GlcNAc
# In short: as §1
# [32] = target: Neu5Ac(a2-3)Gal(b1-3)GalNAc(b1-4)[Neu5Ac(a2-3)]Gal(b1-4)Glc
# In short: as §1
# [33] = target: Neu5Ac(a2-3)Gal(b1-3)GalNAc6S
# In short: as §1
# [34] = target: Neu5Ac(a2-3)Gal(b1-3)GlcNAc
# In short: as §1
# [35] = target: Neu5Ac(a2-3)Gal(b1-3)GlcNAc(b1-3)Gal(b1-3)GlcNAc
# In short: as §1
# [36] = target: Neu5Ac(a2-3)Gal(b1-3)GlcNAc6S
# In short: as §1
binder,measurement,setting,value
B1,glycan array binding signal (z-score),GalNAc(b1-3)GalNAc,-0.189
same,glycan array binding signal (z-score),GalNAc(b1-4)GlcNAc,-0.154
same,glycan array binding signal (z-score),Glc(a1-4)Glc,-0.188
same,glycan array binding signal (z-score),Glc(a1-6)Glc(a1-6)Glc,-0.189
same,glycan array binding signal (z-score),Glc(b1-4)Glc,-0.187
same,glycan array binding signal (z-score),Glc(b1-6)Glc,-0.152
same,glycan array binding signal (z-score),GlcA(b1-3)Gal,-0.192
same,glycan array binding signal (z-score),GlcA(b1-3)GlcNAc,-0.182
same,glycan array binding signal (z-score),GlcA(b1-6)Gal,-0.187
same,glycan array binding signal (z-score),[1],-0.187
same,glycan array binding signal (z-score),[2],-0.18
same,glycan array binding signal (z-score),[3],-0.189
same,glycan array binding signal (z-score),[4],-0.18
same,glycan array binding signal (z-score),GlcNAc(b1-3)Gal,-0.18
same,glycan array binding signal (z-score),[5],-0.18
same,glycan array binding signal (z-score),GlcNAc(b1-3)Gal(b1-4)Glc,-0.193
same,glycan array binding signal (z-score),[6],-0.189
same,glycan array binding signal (z-score),[7],-0.186
same,glycan array binding signal (z-score),GlcNAc(b1-3)GalNAc,-0.193
same,glycan array binding signal (z-score),GlcNAc(b1-3)Man,-0.187
same,glycan array binding signal (z-score),[8],-0.153
same,glycan array binding signal (z-score),[9],-0.193
same,glycan array binding signal (z-score),[10],-0.189
same,glycan array binding signal (z-score),[11],-0.185
same,glycan array binding signal (z-score),GlcNAc(b1-4)GlcNAc,-0.192
same,glycan array binding signal (z-score),[12],-0.19
same,glycan array binding signal (z-score),[13],-0.195
same,glycan array binding signal (z-score),[14],-0.193
same,glycan array binding signal (z-score),[15],-0.157
same,glycan array binding signal (z-score),[16],-0.191
same,glycan array binding signal (z-score),GlcNAc(b1-6)GalNAc,-0.181
same,glycan array binding signal (z-score),GlcNAc3Prop(b1-4)GlcNAc,-0.186
same,glycan array binding signal (z-score),Kdn(a2-3)Gal(b1-3)GlcNAc,-0.18
same,glycan array binding signal (z-score),Kdn(a2-3)Gal(b1-4)GlcNAc,-0.19
same,glycan array binding signal (z-score),[17],3.03
same,glycan array binding signal (z-score),[18],5.87
same,glycan array binding signal (z-score),Man(a1-2)Man(a1-3)Man,0.21
same,glycan array binding signal (z-score),[19],7.66
same,glycan array binding signal (z-score),[20],7.37
same,glycan array binding signal (z-score),[21],0.541
same,glycan array binding signal (z-score),[22],2.53
same,glycan array binding signal (z-score),[23],2.26
same,glycan array binding signal (z-score),[24],5.84
same,glycan array binding signal (z-score),Man(a1-3)[Man(a1-6)]Man,0.326
same,glycan array binding signal (z-score),[25],7.18
same,glycan array binding signal (z-score),[26],3.93
same,glycan array binding signal (z-score),[27],5.06
same,glycan array binding signal (z-score),[28],0.202
same,glycan array binding signal (z-score),Man(a1-6)Man,-0.169
same,glycan array binding signal (z-score),Man(b1-4)GlcNAc,-0.191
same,glycan array binding signal (z-score),Neu5Ac(a2-3)Gal,-0.19
same,glycan array binding signal (z-score),[29],-0.19
same,glycan array binding signal (z-score),[30],-0.187
same,glycan array binding signal (z-score),[31],-0.192
same,glycan array binding signal (z-score),[32],-0.187
same,glycan array binding signal (z-score),[33],-0.191
same,glycan array binding signal (z-score),[34],-0.187
same,glycan array binding signal (z-score),[35],-0.179
same,glycan array binding signal (z-score),[36],-0.192
